Laboratory results published in the supplement of paper PMC3334620.
Whole data set: some 33,000 sequences, median “E-score (-0.5 to 0.5)” near -0.056, cut for the highest 2% near 0.38. Some of the results follow.

Each sequence was assayed against Stb4 (UniProt P50104) (assay: PBM E-score (8-mer binding enrichment) (E-score (-0.5 to 0.5)); higher = stronger / more preferred TF binding; most listed sequences are background and not binding sites). Settings: protein concentration: 200 nM; construct: GST-DNA-binding domain.
Outline: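 Each ungapped eight-base word and its reverse complement, pooled, received an E-score from the Universal PBM Analysis Suite. Underlying scans, normalised with masliner, recorded fluorescent anti-GST bound to GST-tagged yeast transcription factors. These were applied at about 100-200 nM to universal all-10-mer Agilent arrays double-stranded by primer extension.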

| Sequence | PBM E-score |
| --- | --- |
| AGGTGGAG | -0.224 |
| GAAACAAA | -0.112 |
| CTAGCTAG | -0.333 |
| CGATGCGA | -0.0109 |
| GCGCCAGC | -0.0419 |
| ATCCCGGA | 0.344 |
| CAACCAGC | -0.229 |
| ACAGGGGG | -0.302 |
| AAATGGAT | -0.158 |
| CGAGTATC | 0.214 |
| CCGGTTGA | 0.264 |
| TGCAAAAA | -0.148 |
| GGGGATTA | -0.0027 |
| ATCGTGGC | -0.273 |
| ATTTCTCG | 0.232 |
| AGGAGCGC | -0.153 |
| GGCTGATA | 0.154 |
| GAATTACC | 0.174 |
| GGCTGCCC | 0.0668 |
| GTACGGAC | 0.0993 |
| ACGAGCGG | 0.0575 |
| ACACGCGG | 0.157 |
| GCTACACC | -0.173 |
| ATATAGCA | -0.202 |
| CAAACCAA | -0.225 |

| Sequence | PBM E-score |
| --- | --- |
| ACATGTAG | -0.168 |
| GCCTGGAA | -0.25 |
| GATCGGAC | 0.392 |
| GTTACCCA | -0.0577 |
| ATATGCAC | -0.0313 |
| AGGTGGTC | -0.224 |
| AAGTATCA | -0.182 |
| ATCGTTGG | -0.213 |
| ACCTGAGG | -0.151 |
| GCGATAGA | -0.267 |
| AAGATTAC | 0.122 |
| ATTGCATA | -0.0112 |
| ATGATGCA | -0.165 |
| AACACGAG | -0.107 |
| CCGCAGAG | -0.0162 |
| ACACAAAT | -0.0343 |
| AAGCATGG | -0.0719 |
| ACTGATAT | 0.00956 |
| AGCTAACC | -0.00838 |
| CGCTACCC | 0.0897 |
| CAACACTG | -0.267 |
| CGTTCAGA | -0.0795 |
| CGGCGATA | 0.277 |
| AGTACAAA | -0.0756 |
| AAACTGCC | 0.0655 |

| Sequence | PBM E-score |
| --- | --- |
| CGATAACA | 0.205 |
| GACGATAA | -0.00034 |
| AGCGGCAT | 0.113 |
| AAATTTAT | 0.0269 |
| CCGACTAG | 0.232 |
| CTTAATGA | -0.246 |
| TTCACCAA | -0.0739 |
| GTCCAGGA | -0.301 |
| GCATTTCC | 0.117 |
| AATCACGG | 0.241 |
| GATCTTCC | 0.285 |
| AGTATCAC | -0.0927 |
| ATGAGGAG | -0.186 |
| AGAAGCCA | 0.0781 |
| ATCGATGC | 0.0219 |
| CCCGTCAC | 0.181 |
| CCGCGAAA | 0.155 |
| CAAAGCTA | -0.187 |
| ACGCCAAA | -0.187 |
| AGCCGTGC | 0.134 |
| ACTTAATA | 0.125 |
| GGATTGAC | 0.0657 |
| ATGCGGAA | 0.332 |
| CCACACGG | 0.134 |
| GTCGTACA | -0.0482 |

| Sequence | PBM E-score |
| --- | --- |
| GAGATTTA | 0.00895 |
| CGGCACAG | 0.328 |
| AACACTAC | 0.0356 |
| AGAATCGC | 0.0089 |
| CACTATGC | -0.0475 |
| AAGTAAAC | 0.0883 |
| GTCGCCAC | -0.126 |
| ATGGATAC | 0.0478 |
| AAACAAAG | -0.0221 |
| TCTGGTAA | -0.116 |
| GAGAGGCA | 0.113 |
| AGGCACCG | 0.0494 |
| CCACACCA | -0.223 |
| CGTGGCAA | -0.14 |
| TCATTTAA | -0.0543 |
| CGATAGTC | -0.112 |
| AGAACTCT | -0.301 |
| GTACCGAC | 0.279 |
| ATACCGGC | 0.248 |
| CTGTTTAA | -0.0736 |
| AATCGCAA | -0.048 |
| AGTACGGG | 0.00186 |
| TAAGCTAA | -0.0234 |
| CTTTCGGC | 0.386 |
| CCTTCGTA | -0.121 |

| Sequence | PBM E-score |
| --- | --- |
| CACATCTG | 0.0198 |
| ACAGTAAA | -0.187 |
| AAGGGCAG | -0.0968 |
| CGACTTAC | 0.22 |
| GGATTGGA | 0.101 |
| GAGTGACC | -0.0802 |
| GGCAATTA | 0.0261 |
| ACGAGTGC | -0.213 |
| ACTAAACC | 0.176 |
| CCCACCTA | -0.0843 |
| TATAACGA | -0.157 |
| ATCGGCTA | 0.403 |
| CAGAATCC | 0.0421 |
| CCGTTGAA | -0.0435 |
| CATATAGC | 0.118 |
| GCGTAACC | -0.00946 |
| ATGGTTAC | -0.128 |
| CGCCACCA | -0.139 |
| GGTCCCAC | 0.058 |
| GGGTGGCA | 0.00667 |
| CGACCCGA | 0.4 |
| AAGAATGT | -0.215 |
| CCAGGCGG | 0.0927 |
| AGACGCGC | -0.143 |
| AGGTCGAA | -0.297 |

| Sequence | PBM E-score |
| --- | --- |
| CTGCAGGA | -0.136 |
| CATACACG | -0.00889 |
| CCATAAAC | -0.142 |
| GTAAGCGA | -0.188 |
| CGAGCTCA | 0.228 |
| CAGGTAAG | -0.244 |
| AGGCGGTA | -0.135 |
| AATAGCGT | 0.0361 |
| GAATGACA | -0.0727 |
| TCCGAGAA | 0.455 |
| CTCTTCCA | 0.0511 |
| ACATTATA | -0.0577 |
| GCTAATAC | 0.0852 |
| ATTACAAG | -0.216 |
| CACGGGGA | 0.121 |
| ATGAATCA | -0.122 |
| GACAAGTC | -0.119 |
| ATAACGGG | 0.106 |
| TTGATAAA | -0.105 |
| CCGTATCA | 0.236 |
| CAGCGAAA | -0.0442 |
| ATTAAGGC | -0.0428 |
| CACTTTAC | -0.0166 |
| AGGACGCC | -0.0764 |
| CTAATCAA | 0.0532 |

| Sequence | PBM E-score |
| --- | --- |
| CGTCTAAC | 0.0342 |
| GGTTACGA | -0.0994 |
| ATGGGGTG | -0.0849 |
| GTGGCCTA | -0.12 |
| CCCTTTCA | -0.157 |
| AATATCCT | -0.0556 |
| ATCCGGTC | 0.302 |
| GTCCATAA | -0.288 |
| CCGGTCAG | 0.0903 |
| GGGGCAAA | 0.108 |
| GCCGAAGA | 0.362 |
| GCCTAGCA | -0.0769 |
| ACTGCAAC | -0.0743 |
| GACATGTA | -0.0526 |
| AAATGCCT | 0.00392 |
| CATCTAAA | 0.0673 |
| CAGAGTAC | -0.0331 |
| ACGTCTTA | -0.197 |
| CACGCATA | -0.194 |
| AGAATCTG | 0.00586 |
| GCTAAAAA | -0.143 |
| CCGCGGCC | 0.219 |
